Target: the molecule itself
Assay: crystal structure; EBP with U18666A (3.2 Å) or tamoxifen (3.5 Å); space group P2(1)2(1)2; hanging drop, 20 °C; each asymmetric unit contains one dimer and one monomer

B1: human EBP (3-β-hydroxysteroid-Δ8,Δ7-isomerase, Emopamil-Binding Protein), N-terminal Strep-tag, crystallised (enzyme)
chain: not shown
notes: residues 1-6, 53-59 and 220-230 were not visible in the electron density map; Crystallised with 10 uM U18666A or tamoxifen added in all purification steps; Selenomethionine-labelled protein was used for phasing; also called Strep-EBP; human sterol isomerase; source: HEK-293S GnTI- cells, baculovirus-mediated transduction, purified (Strep-Tactin, Superdex 200 Increase)
  stoichiometry N: 2

Source: publication PMC6549186 (Nature Communications, 2019)
